Drawing on PMC3541543, this text covers binding for five substances.

Protein sequences, listed by entry. Tags and fused reporters are not part of them. Lines headed by an entry give the natural chain unless they say otherwise; changes in a name come on top.
UniProt Q9Y2I6: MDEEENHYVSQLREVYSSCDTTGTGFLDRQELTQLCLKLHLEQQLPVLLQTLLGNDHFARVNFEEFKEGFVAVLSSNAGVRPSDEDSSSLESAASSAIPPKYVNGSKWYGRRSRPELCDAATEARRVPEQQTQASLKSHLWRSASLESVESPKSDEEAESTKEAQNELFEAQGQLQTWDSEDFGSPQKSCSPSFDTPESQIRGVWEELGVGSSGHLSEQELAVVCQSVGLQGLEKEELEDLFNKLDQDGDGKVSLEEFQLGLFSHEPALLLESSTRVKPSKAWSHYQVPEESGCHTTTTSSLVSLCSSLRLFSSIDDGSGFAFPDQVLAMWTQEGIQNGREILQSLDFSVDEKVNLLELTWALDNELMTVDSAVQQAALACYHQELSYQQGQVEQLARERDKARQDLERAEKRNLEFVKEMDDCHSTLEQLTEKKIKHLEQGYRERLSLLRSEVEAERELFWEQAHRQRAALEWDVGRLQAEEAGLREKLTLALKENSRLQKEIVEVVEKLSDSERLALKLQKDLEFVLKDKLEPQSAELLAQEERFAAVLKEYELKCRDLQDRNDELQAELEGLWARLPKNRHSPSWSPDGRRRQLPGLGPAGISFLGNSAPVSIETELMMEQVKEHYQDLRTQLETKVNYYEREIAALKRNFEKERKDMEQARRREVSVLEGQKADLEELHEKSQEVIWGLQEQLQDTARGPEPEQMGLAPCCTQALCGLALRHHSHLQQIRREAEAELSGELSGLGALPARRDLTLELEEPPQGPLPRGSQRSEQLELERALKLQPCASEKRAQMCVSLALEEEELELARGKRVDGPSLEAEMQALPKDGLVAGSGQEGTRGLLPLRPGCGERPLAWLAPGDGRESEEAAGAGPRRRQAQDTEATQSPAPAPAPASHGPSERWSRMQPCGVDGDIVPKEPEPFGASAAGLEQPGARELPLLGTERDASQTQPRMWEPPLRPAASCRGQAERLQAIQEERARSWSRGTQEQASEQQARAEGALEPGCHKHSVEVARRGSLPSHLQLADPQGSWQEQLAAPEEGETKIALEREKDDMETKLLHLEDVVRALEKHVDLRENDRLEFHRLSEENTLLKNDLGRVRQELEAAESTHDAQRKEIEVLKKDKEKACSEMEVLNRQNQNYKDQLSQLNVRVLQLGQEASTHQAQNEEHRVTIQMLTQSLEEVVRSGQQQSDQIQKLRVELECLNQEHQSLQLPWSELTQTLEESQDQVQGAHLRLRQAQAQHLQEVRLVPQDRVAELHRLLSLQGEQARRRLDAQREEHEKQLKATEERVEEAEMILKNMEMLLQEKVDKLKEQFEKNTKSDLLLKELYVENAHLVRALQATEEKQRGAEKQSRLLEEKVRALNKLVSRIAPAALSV
UniProt Q12929: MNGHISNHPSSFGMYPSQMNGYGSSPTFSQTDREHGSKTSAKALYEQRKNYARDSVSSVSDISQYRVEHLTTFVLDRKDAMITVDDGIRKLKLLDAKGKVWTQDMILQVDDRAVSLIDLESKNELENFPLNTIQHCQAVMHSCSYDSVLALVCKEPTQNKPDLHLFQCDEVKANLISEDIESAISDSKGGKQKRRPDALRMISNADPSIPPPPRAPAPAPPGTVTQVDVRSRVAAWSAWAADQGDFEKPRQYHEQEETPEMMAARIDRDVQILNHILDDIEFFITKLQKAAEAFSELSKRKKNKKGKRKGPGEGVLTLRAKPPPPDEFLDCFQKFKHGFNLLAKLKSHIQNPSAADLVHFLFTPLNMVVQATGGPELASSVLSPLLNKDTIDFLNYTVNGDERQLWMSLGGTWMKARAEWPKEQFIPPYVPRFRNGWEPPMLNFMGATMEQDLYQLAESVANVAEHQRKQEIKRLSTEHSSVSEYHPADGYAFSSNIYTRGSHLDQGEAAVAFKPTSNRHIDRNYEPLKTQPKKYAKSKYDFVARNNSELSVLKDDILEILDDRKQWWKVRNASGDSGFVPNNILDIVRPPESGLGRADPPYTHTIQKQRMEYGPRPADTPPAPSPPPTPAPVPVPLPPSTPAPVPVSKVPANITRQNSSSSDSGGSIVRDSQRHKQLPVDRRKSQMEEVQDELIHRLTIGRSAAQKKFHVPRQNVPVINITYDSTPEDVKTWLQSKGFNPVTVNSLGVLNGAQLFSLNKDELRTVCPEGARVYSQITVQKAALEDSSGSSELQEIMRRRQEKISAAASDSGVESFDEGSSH

These are yes or no findings as the source states them, for the method shown. For some assays here: Binding seen in cells or lysates may run through a third protein. Some binding calls cover weakened binding; strength is not graded here. For some assays here: Sequences can lack the tags named with a protein.

The target in assay [1] is T1, SPAG5 fragment aa 973 to 1193, yeast two-hybrid construct (human) (UniProt Q96R06).
T1 sequence: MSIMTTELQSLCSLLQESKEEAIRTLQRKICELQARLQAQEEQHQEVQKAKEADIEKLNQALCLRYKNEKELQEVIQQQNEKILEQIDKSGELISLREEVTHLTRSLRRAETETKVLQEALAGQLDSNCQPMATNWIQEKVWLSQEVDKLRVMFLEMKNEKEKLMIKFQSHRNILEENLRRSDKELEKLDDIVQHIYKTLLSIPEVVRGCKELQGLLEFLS
Kind of assay: two-hybrid; liquid beta-galactosidase assay in yeast.

Assay [2] has as its target T1, SPAG5 fragment aa 973 to 1193, yeast two-hybrid construct (human). Put plainly: two-hybrid; liquid beta-galactosidase assay in yeast; data not shown.
In assay [3] the target is T2, GFP-tagged USH2A isoform B intracellular domain (human) (UniProt O75445).
T2 sequence: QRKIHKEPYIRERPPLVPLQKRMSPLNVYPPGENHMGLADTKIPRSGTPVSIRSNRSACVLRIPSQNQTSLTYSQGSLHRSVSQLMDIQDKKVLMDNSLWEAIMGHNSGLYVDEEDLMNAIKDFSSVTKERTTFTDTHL
Kind of assay: co-IP; from COS-1 cell lysates; GFP-fused USH2A isoB ICD precipitated with anti-GFP antibody, HA-tagged proteins detected.

The target of another assay is T3, HA-tagged MDA5 (UniProt Q9BYX4).
T3 sequence: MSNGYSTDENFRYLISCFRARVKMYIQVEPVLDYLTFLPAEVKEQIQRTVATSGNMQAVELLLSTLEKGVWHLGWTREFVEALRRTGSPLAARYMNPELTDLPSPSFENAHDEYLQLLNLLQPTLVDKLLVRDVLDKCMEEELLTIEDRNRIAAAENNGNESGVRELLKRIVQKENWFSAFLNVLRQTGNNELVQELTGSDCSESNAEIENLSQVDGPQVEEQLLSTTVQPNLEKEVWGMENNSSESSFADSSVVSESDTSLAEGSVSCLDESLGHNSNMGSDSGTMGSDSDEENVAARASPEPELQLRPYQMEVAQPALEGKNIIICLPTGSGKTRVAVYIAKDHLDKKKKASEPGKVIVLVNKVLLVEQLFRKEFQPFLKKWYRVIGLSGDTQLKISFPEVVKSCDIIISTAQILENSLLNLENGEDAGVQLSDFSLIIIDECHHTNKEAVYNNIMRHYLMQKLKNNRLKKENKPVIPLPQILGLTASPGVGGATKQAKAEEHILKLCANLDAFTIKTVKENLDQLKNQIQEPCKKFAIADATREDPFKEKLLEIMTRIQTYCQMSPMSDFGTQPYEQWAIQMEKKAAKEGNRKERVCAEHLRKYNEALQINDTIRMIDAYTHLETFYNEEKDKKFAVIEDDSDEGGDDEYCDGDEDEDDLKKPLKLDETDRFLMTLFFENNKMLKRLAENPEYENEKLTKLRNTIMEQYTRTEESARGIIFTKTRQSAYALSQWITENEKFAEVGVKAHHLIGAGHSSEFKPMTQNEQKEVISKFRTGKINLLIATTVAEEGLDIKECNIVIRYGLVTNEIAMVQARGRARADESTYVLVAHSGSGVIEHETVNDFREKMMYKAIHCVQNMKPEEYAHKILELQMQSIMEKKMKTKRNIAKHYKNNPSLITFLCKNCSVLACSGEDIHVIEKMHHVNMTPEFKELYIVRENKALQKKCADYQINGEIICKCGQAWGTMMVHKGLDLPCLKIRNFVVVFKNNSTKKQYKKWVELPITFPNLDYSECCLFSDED
Put plainly: co-IP; Flag-NINL isoB with HA-tagged proteins; cells not named for this experiment.

Assay [4] has as its target T4, HA-tagged full-length SPAG5 (human) (UniProt Q96R06).
T4 sequence: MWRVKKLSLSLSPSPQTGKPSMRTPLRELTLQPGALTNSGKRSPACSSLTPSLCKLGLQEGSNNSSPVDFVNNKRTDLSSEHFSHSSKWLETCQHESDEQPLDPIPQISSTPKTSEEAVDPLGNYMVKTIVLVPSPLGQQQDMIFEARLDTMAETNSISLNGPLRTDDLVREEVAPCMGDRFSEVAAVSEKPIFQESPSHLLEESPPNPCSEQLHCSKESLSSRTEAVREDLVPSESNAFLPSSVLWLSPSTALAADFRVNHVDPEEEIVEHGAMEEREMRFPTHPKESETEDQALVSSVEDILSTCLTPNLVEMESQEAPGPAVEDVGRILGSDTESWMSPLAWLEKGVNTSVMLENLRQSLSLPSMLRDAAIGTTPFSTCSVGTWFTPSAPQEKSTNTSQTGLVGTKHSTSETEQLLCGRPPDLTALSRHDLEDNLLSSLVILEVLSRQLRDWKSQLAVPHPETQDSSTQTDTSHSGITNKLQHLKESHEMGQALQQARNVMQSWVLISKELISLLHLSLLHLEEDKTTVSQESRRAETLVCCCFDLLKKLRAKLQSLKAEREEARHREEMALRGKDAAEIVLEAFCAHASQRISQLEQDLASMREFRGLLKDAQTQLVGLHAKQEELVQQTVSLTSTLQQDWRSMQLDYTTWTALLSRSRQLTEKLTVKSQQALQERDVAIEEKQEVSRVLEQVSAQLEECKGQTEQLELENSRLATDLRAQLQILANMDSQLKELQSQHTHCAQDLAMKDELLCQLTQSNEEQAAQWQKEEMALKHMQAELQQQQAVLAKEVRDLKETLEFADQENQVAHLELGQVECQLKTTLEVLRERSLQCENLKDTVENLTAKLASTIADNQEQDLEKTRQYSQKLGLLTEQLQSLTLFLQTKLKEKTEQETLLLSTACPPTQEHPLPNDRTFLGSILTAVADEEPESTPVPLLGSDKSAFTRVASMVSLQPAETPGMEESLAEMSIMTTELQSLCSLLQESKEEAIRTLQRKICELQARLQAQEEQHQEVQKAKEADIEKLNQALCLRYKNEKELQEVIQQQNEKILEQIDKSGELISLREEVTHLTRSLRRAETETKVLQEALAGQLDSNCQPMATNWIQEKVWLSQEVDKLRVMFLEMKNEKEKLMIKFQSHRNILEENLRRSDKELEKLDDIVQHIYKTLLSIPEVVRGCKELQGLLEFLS
The description is as above.

The target in assay [5] is T5, HA-tagged USH2A isoform B intracellular domain (human) (UniProt O75445).
T5 sequence: T2 sequence
Described as above.

Assay [6] has as its target T6, GST-fused SPAG5 aa 973 to 1193 (human) (UniProt Q96R06).
T6 sequence: T1 sequence
Kind of assay: pull-down; GST fusion protein from E. coli as bait; Flag-tagged protein from COS-1 cell lysate; detected by anti-Flag antibody; only the target purified.

“NINL isoform B predicted intermediate filament domain (aa 656 to 925), yeast two-hybrid construct (from UniProt Q9Y2I6-2 656-925) (domain or fragment)”: the binding entry in assay [1] was “binds”.

On to “full-length NINL isoform A, yeast two-hybrid construct (from UniProt Q9Y2I6 1-1382)”, for which the binding entry in assay [2] is recorded as “binds”.

As to “HA-tagged EPS8 (from UniProt Q12929 1-822)”, the binding entry in assay [3] is on record as “no binding”.

For the substance “Flag-tagged full-length NINL isoform B (from UniProt Q9Y2I6-2 1-1033)”, the binding entry in the assay with HA-tagged MDA5 was “no binding”; in assay [4], “binds”; in assay [5] it was “binds”; in assay [6], “binds”.

On to “full-length NINL isoform B, yeast two-hybrid construct (from UniProt Q9Y2I6-2 1-1033)”, for which the binding result in assay [1] is listed as “binds”.
